Out of some 390,000 compounds screened, about 910 (0.23%) were called active. Roughly 5% stayed inconclusive and do not appear here. Calls follow the shape of the dose curve; as a rule, active = well fitted inhibition curve with a large enough effect; inconclusive = small, poorly fitted or top-dose-only effect; inactive = no such curve, though single readings can be large or run the other way. Only a part is listed here, and it is no random draw.
% is scaled to controls: 0 for no effect and ±100 for the full control effect; potency is read from the fitted curve at half-maximal effect.

The target of the experiment is Ubiquitin carboxyl-terminal hydrolase 1 (Homo sapiens) (UniProt O94782). The experiment in a line: Inhibitors of USP1/UAF1: Primary Screen. Also: nearly all actives have a fitted effect of over 60% in size. To be noted: recombinant USP1/UAF1, Ub-Rhodamine cleavage fluorescence; activity change, negative = inhibition: at 57.1 µM (top of the series). The method, boiled down: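 Step one: compound is pinned into 1nM USP1/UAF1 in HEPES pH 7.8 buffer with TCEP. Step two: 15 min room-temperature incubation. Step three: Ub-Rho (150nM final) starts cleavage, tracked by fluorescence over six one-minute reads.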
Sequence of UniProt O94782 (O94782 whole entry, looked up): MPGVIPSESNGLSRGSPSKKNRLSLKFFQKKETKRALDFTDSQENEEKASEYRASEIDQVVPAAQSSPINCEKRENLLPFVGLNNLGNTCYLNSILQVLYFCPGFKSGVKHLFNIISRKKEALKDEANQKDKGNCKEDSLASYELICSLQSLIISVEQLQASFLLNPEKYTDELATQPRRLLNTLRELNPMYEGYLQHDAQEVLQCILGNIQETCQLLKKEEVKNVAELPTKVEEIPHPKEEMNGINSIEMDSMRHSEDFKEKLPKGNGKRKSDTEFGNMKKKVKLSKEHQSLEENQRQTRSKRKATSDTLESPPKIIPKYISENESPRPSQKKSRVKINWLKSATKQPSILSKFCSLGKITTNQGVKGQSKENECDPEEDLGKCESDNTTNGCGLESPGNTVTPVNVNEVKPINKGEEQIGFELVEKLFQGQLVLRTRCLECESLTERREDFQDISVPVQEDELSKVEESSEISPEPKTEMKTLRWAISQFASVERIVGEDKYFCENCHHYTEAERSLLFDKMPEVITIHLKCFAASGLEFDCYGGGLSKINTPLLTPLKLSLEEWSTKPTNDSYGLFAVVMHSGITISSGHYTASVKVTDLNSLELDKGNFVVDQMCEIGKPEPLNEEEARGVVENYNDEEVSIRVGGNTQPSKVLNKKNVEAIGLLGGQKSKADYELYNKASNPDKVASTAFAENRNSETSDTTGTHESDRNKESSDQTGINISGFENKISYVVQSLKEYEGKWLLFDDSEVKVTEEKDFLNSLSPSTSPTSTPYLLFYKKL
With `COC(=O)c1ccc(-n2nnc(-c3nc(-c4ccc5c(c4)OCO5)no3)c2C)cc1`, the “activity change, negative = inhibition” value is inactive: 38.1%. For the compound `Cc1ccc(-n2nnnc2C(=Cc2ccc(N(C)C)cc2)c2nnnn2-c2ccc(C)cc2)cc1`, the Potency is active: 22.4 µM. `O=C1N[C@@H](c2ccccc2)COC(=O)[C@H](Cc2ccc(F)cc2)CC/C=C/C[C@H]1CC(=O)N(CCO)Cc1ccccc1`: the “activity change, negative = inhibition” value was inactive: -22.8%. For `COC(C[C@H](O)C[C@H](O)COCc1ccccc1)OC`, the “activity change, negative = inhibition” value is inactive: -17.8%.

`Cc1[nH]n(-c2ccccc2)c(=O)c1C=Nc1ccc2[nH]c(=O)[nH]c2c1`: the “activity change, negative = inhibition” value was inactive: 96.3%. The same measure, in the same setting: in the case of `C[C@H]1COC(=O)[C@H](CC(=O)OC(C)(C)C)C/C=C\C[C@@H](CC(=O)NCCO)C(=O)N1` it was inactive: -3.49%; in that of `O=C1CSC(c2cccs2)N1c1ccccc1` (stereo unspecified), inactive: 41%; in that of `C[C@@H]1CN([C@H](C)CO)C(=O)CCCn2nncc2CO[C@H]1CN(C)Cc1ccccc1C(F)(F)F`, inactive: -17.8%. Take `OCC[C@@H]1C[C@H](O)[C@@H](O)[C@]2(OCc3ccccc32)O1`: the “activity change, negative = inhibition” value was inactive: -8.85%. For the compound `C#CCNC(=O)C1=C[C@@H](c2ccc3c(c2)OCO3)C[C@@H](OCc2ccc(CO)cc2)O1`, the “activity change, negative = inhibition” value was inactive: -1.45%. For the compound `O=C1CSC(=S)N1/N=C/c1cc(Br)c(O)c(Br)c1`, the Potency was active: 17.8 µM. Still for that read-out and setting: in the case of `CCOC(=O)c1c(C)sc(-c2c(-c3ccc4c(c3)OCCO4)[nH]c3c2c(=O)n(C)c(=O)n3C)c1O` it was active: 15.8 µM.

Consider `O=C1NC(=S)N/C1=C\c1cccc([N+](=O)[O-])c1`, for which the “activity change, negative = inhibition” value was inactive: -6.35%. Still for that read-out and setting: in the case of `COc1ccccc1CN1CCN(Cc2nc(-c3ccc(C)cc3)oc2C)CC1` it was inactive: 35%; in that of `COc1ccc(N2CCN(CCCNC(=O)Nc3ccccc3)CC2)cc1`, inactive: -12.2%.

As to `N=C1/C(=C/c2coc3ccccc3c2=O)C(=O)N=C2SC(c3ccco3)=NN12`, the “activity change, negative = inhibition” value is inactive: 178%. Same read-out and setting: with `CC(=O)OCC(=O)[C@@]1(O)CC[C@H]2[C@@H]3CCC4=CC(=O)C=C[C@]4(C)[C@H]3C(=O)C[C@@]21C` the figure was inactive: -19.5%; with `CC[C@@H]1C/C=C\Cc2ccccc2[C@@H](C(=O)C[C@@H](O)CC(C)=O)OC1=O`, inactive: -21.5%; with `CCCCOc1cc(C(=O)NCCN(CC)CC)c2ccccc2n1`, inactive: -14.2%. The same measure, in the same setting: with `Cn1nc(C(=O)N2CCc3ccccc3C2)c2ccccc2c1=O` the figure was inactive: 29.6%; with `COc1ccc(NC(=O)CN(C)S(=O)(=O)c2ccc3c(c2)CCCN3C(C)=O)cc1`, inactive: -17.2%. The same measure, in the same setting: with `N#CC(=C1NC(=O)c2ccccc21)c1nc2ccccc2n1CCO` the figure was inactive: 62.5%. Turning to `COc1ccc(S(=O)(=O)Nc2cccc3c2O[C@H](CN(C)Cc2ccc(C(=O)O)cc2)[C@@H](C)CN([C@H](C)CO)C3=O)cc1`, the “activity change, negative = inhibition” value was inactive: -9.74%.

On to `CC(C(=O)Nc1cc(C(F)(F)F)ccc1N1CCOCC1)N1C(=O)C2CC=CCC2C1=O` (stereo unspecified), for which the “activity change, negative = inhibition” value is inactive: -0.28%. The same measure, in the same setting: in the case of `COc1ccc2oc(=O)c(-c3nnc(-c4ccc(C)cc4)o3)cc2c1` it was inactive: 31.5%; in that of `C=CCC[C@@H](Cc1ccc(F)cc1)C(=O)OC[C@@H]1CCCN1C(=O)[C@@H](CC=C)CC(=O)N[C@@H](CO)Cc1ccccc1`, inactive: -27.2%; in that of `CCOc1ccc(CNC(=O)CCCc2cn(C)c3ccccc23)cc1OC`, inactive: -1.16%. Turning to `COc1ccc2c(c1)Cc1sc(NC(=O)c3cccc(C)c3)nc1-2`, the Potency is active: 35.5 µM. As for `CC(C)NCC(O)COc1cccc2ccccc12` (stereo unspecified), the “activity change, negative = inhibition” value is inactive: -23%. Still for that read-out and setting: with `O=C(COc1ccccc1Cl)Nc1nnc(S(=O)(=O)N2CCCCCC2)s1` the figure was inactive: 6.7%. For `COC(=O)[C@@H]1[C@H]2C[C@H]3c4[nH]c5ccccc5c4CCN3C[C@@H]2CC[C@@H]1O`, the Potency result is “inactive”. In the case of `O=c1[nH]c2ccccc2nc1/C=C(\O)c1cccs1`, the Potency was active: 15.8 µM. For `CC1=CC(=C2N=C(c3ccccc3)OC2=O)C=C(C)O1`, the “activity change, negative = inhibition” value is inactive: 115%.

For the compound `CCOc1cccc(CNc2ccc(O)cc2)c1OCc1ccc(Cl)cc1`, the Potency is active: 25.1 µM. Turning to `O=C(C1=C[C@H](c2ccc(C(F)(F)F)cc2)C[C@H](OCc2ccc(CO)cc2)O1)N1CCN(Cc2ccccc2)CC1`, the “activity change, negative = inhibition” value was inactive: -29.7%. Still for that read-out and setting: in the case of `Cn1nc(C(=O)NCc2ccccc2)c2c1-c1ccccc1S(=O)(=O)C2` it was inactive: -10.2%. The same measure, in the same setting: with `O=C1NC[C@@H](c2ccccc2)OC(=O)[C@@H](Cc2ccc(F)cc2)CC/C=C/C[C@@H]1CC(=O)N(CCO)Cc1ccccc1` the figure was inactive: -21.8%; with `COC(=O)[C@@]12CCCCN1[C@H](c1ccc(-c3ccc(C(C)=O)cc3)cc1)[C@@H]1C(=O)N(C)C(=O)[C@@H]12`, inactive: -9.01%; with `COc1ccc(OC)c(NC(=O)CCNS(=O)(=O)c2ccc3c(c2)oc(=O)n3C)c1`, inactive: -2.83%. Same read-out and setting: in the case of `COc1ccc(CN(C)C[C@@H]2OCc3cnnn3CCCC(=O)N([C@@H](C)CO)C[C@H]2C)cc1` it was inactive: -4.03%; in that of `O=C(NCCn1cc(SCc2ccc(F)cc2)c2ccccc21)c1c(F)cccc1F`, inactive: -18.5%. On to `Cc1ccc(Cn2c(=O)n(-c3ccccc3)c(=O)c3ccc(C(=O)NCc4ccco4)cc32)cc1`, for which the “activity change, negative = inhibition” value was inactive: -1.39%. Turning to `CC(=O)c1ccc(NS(=O)(=O)c2cc(-c3cnc(C4CC4)o3)ccc2C)cc1`, the “activity change, negative = inhibition” value is inactive: -28.2%.

Consider `CCCCCN1C(=O)/C(=C/c2c(N3CCc4ccccc4C3)nc3ccccn3c2=O)SC1=S`, for which the “activity change, negative = inhibition” value is inactive: 18.2%. On the same count and under the same terms, with `Cc1cccc(C)c1NC(=O)CN1C(=O)CCSc2ccc(S(=O)(=O)N3CCCC3)cc21` the figure was inactive: -28.2%; with `COc1ccc(-c2nc(SCC(=O)NC3CCCC3)c(-c3ccc(OC)cc3)[nH]2)cc1`, inactive: -0.186%; with `COc1ccc(CNC(=O)Cn2nc(C)n3cccc3c2=O)cc1`, inactive: 19.4%.

With `CCOc1cc(CNS(=O)(=O)c2ccc3c(c2)CC(=O)N3C)cc(OCC)c1OCC`, the “activity change, negative = inhibition” value is inactive: -23.8%.

Regarding `CCOc1ccc(CNC(=O)c2ccc(Sc3ccc(Cl)cc3)c(NC(C)=O)c2)cc1`, the “activity change, negative = inhibition” value was inactive: -26.8%. Same read-out and setting: with `Cc1ccccc1C(=O)c1cccn1CC(=O)NCc1ccc(Cl)cc1` the figure was inactive: -17.6%. Consider `Cn1c(-c2c(N)n(CCc3ccccc3)c3nc4ccccc4nc23)nc2ccccc21`, for which the Potency is active: 28.2 µM. For `C[C@H](CO)N1C[C@H](C)[C@@H](CN(C)Cc2ccccc2)OCc2cnnn2CCCC1=O`, the “activity change, negative = inhibition” value is inactive: 0.281%. The same measure, in the same setting: with `COc1ccc(NC(=O)N(C)C[C@H]2Oc3ccc(NC(=O)CCN4CCOCC4)cc3C(=O)N([C@H](C)CO)C[C@@H]2C)cc1` the figure was inactive: -9.86%; with `COc1ccc(NC(=O)CSc2nc3ccccc3nc2N2CCCCC2)cc1`, inactive: -21.5%.

As to `Cc1ccc(N2C(=O)c3cccc4c(N)ccc(c34)C2=O)c2cccnc12`, the Potency is active: 25.1 µM.

Take `C[C@@H]1CCC[C@]2(O[C@H](CCO)C[C@@H](O)[C@@H]2O)O1`: the “activity change, negative = inhibition” value was inactive: 5.76%.
